Measurements published in PubChem BioAssay AID2100 (National Center for Advancing Translational Sciences (NCATS), 2009).
The campaign covered roughly 300,000 compounds. About 1,200 (0.4%) were called active. Inconclusive means that the source gave no clear call. Such entries were picked first, then a sample of the others. The call rests on the fitted dose curve; in most records, active means well fitted inhibition curve with a large enough effect; inconclusive means small, poorly fitted or top-dose-only effect, or another doubt; inactive means no such curve, though single readings can be large or run the other way. A potency beside an inconclusive call is a rough fit, not a confirmed value.

molecular target: Lysosomal alpha-glucosidase (Homo sapiens) (UniProt P10253); experiment: qHTS Assay for Inhibitors and Activators of Human alpha-Glucosidase Cleavage of Glycogen; settings: recombinant GAA, glycogen substrate, Amplex Red glucose oxidase fluorescence; activity change, negative = inhibition: at 76.4 µM (top of the series) unless noted;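 on activity change, negative = inhibition: 0% = full enzyme reaction and -100% = no-enzyme basal signal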
How it was run: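 Recombinant enzyme (4 nM final) with compounds titrated up to 77 uM and bovine liver glycogen (30 ug) in citrate pH 5.0, 0.01% Tween-20, 37 C 40 min. Released glucose detected by Amplex Red/glucose oxidase (Ex 573/Em 610); AC50 from Hill fits.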
Potency means the concentration at half of the fitted maximal effect.

Compound	Potency	activity change, negative = inhibition
O=C(/C=C/c1ccc(O)c(O)c1)c1ccc(S(=O)(=O)N2CCCCCC2)cc1	inconclusive: 7.03 µM [inhibitor, partial curve]	–
CCOC(=O)c1ccc2nc(NC(NC(C)=O)(C(=O)OC)C(F)(F)F)sc2c1 (stereo not given)	inactive	–
Cc1ccc(NC(=O)CSc2ccc(-c3cccs3)nn2)cc1Cl	inactive	–
C=CCc1ccc(OCCN2CCc3ccccc3C2)c(OC)c1	–	inconclusive: 33% [activator]
O=C(c1ccc(S(=O)(=O)NCc2ccco2)cc1)N1CCN(Cc2ccccc2)CC1	inactive	–
COC(=O)CCN(C1CCCCC1)S(=O)(=O)c1ccc(S(=O)(=O)N2CCCCC2)cc1	inactive	–
COC(=O)c1cc(S(=O)(=O)NCCc2ccccc2)c[nH]1	inconclusive: 8.91 µM [inhibitor, partial curve]	–
COc1ccc(NC(=O)NNC(=O)c2cc3occc3n2C)c(OC)c1	inconclusive: 50.1 µM [inhibitor, partial curve]	–
COc1ccccc1CN1C(=S)SC(C)(C)C1NO (stereo not given)	inconclusive: 35.5 µM [inhibitor, partial curve]	–
CCCc1cc(Nc2c(C)n(C)n(-c3ccccc3)c2=O)n2c(nc3ccccc32)c1C#N	active: 14.1 µM	–
O=[N+]([O-])c1ccc(O)c(C=Nc2ccc3oc(Cc4ccc(Cl)cc4)nc3c2)c1	inactive	–
CCn1ncc(NC(=S)Nc2ccc3c(c2)OCO3)c1C(N)=O	inconclusive: 28.2 µM [inhibitor, partial curve]	–
COc1cccc(CNS(=O)(=O)c2ccc(S(=O)(=O)N3CCCC3)cc2)c1	active: 5.01 µM	–
COc1ccc([C@]23Cc4ccccc4C(O2)c2c(cc(C)n(Cc4ccccc4)c2=O)O3)cc1	–	inactive: -28.3% [at 15.3 µM]
O=C(CCNC(=O)c1ccccc1Cl)NC1=NCCS1	inactive	–
COc1ccc(CCNc2nc(-c3ccc(F)cc3)c(CC(=O)O)s2)cc1OC	inconclusive: 56.2 µM [inhibitor, partial curve]	–
Cc1ccc(Nc2nnc(SCC(=O)c3ccc(Br)s3)s2)c(C)c1	inconclusive: 35.5 µM [inhibitor, partial curve]	–
CCCN1C(=O)c2[nH]nc(-c3ccccc3O)c2C1c1ccc(OCc2ccccc2)c(OC)c1 (stereo not given)	inactive	–
CCOc1cc(/C=N\n2nnnc2N)ccc1O	inconclusive: 50.1 µM [inhibitor, single point]	–
COc1ccc(Cl)cc1N(C)C(=O)c1ccc2c(=O)n3c(nc2c1)CCCCC3	inconclusive: 39.8 µM [inhibitor, single point]	–
CCN(CC)c1ccc(NC(=O)COC(=O)C23CCC(=O)N2c2ccccc2S3)cc1 (stereo not given)	inactive	–
COc1ccc(N2C(=O)CCC(C(=O)N(C)CCc3ccccn3)C2c2ccc(OC)c(OC)c2)cc1 (stereo not given)	inconclusive: 50.1 µM [inhibitor, single point]	–
Cc1ccccc1NC(=S)NNc1ncc(C(F)(F)F)cc1Cl	inconclusive: 35.5 µM [inhibitor, single point]	–
Cc1c(C(=O)O)cccc1-n1c(C)cc(/C=N/Nc2ccc([N+](=O)[O-])cn2)c1C	inconclusive: 31.6 µM [inhibitor, partial curve]	–

Compound	Potency	activity change, negative = inhibition
O=C(O)/C=C/C(=O)Nc1ccc(N2CCOCC2)nc1N1CCOCC1	inconclusive: 15.7 µM [inhibitor, partial curve]	–
CN(C)S(=O)(=O)c1ccc(C(=O)Nc2nnc(-c3cccs3)o2)cc1	–	inconclusive: 33.5% [activator]
Cc1ccc(S(=O)(=O)NNC2=NS(=O)(=O)c3ccccc32)c(C)c1	inconclusive: 8.91 µM [inhibitor, single point]	–
CC(C)N(C(C)C)S(=O)(=O)c1ccc(NN)nc1	inconclusive: 39.8 µM [inhibitor, partial curve]	–
Cc1c(CCO)c(=O)n(C)n1C(=O)c1ccc(F)cc1	inconclusive: 24.9 µM [inhibitor, single point]	–
CCCC(C(=O)NCc1cccc(Cl)c1)N1Cc2ccccc2C1=O (stereo not given)	inactive	–
O=C(NNS(=O)(=O)c1ccc(F)cc1)C1CC(c2cccnc2)=NO1 (stereo not given)	inconclusive: 50.1 µM [inhibitor, single point]	–
Cc1c(NC(=S)N2CCN(c3ccc(F)cc3)CC2)c(=O)n(-c2ccccc2)n1C	inconclusive: 15.8 µM [inhibitor, partial curve]	–
COC(=O)c1c(NC(NC(C)=O)C(Cl)(Cl)Cl)sc2c1CCCC2 (stereo not given)	inconclusive: 22.4 µM [inhibitor, partial curve]	–
CCOC(=O)c1cc(-c2ccc(N)cc2)sc1N	active: 14 µM	–
O=C(O)c1cccc(S(=O)(=O)Nc2ccc(O)c(Sc3nc4ccccc4s3)c2)c1	inconclusive: 12.6 µM [inhibitor, partial curve]	–
NNC(=O)c1nc(-c2ccccc2)n2c1CCCCC2	active: 17.6 µM	–
N#Cc1c(/N=C/c2ccco2)sc2c1CCC2	active: 22.2 µM	–
Cc1ccccc1Nc1nc(-c2sc(NC(=O)c3cccc(Cl)c3)nc2C)cs1	inconclusive: 17.6 µM [inhibitor, single point]	–
O=C(NC1CC1)C1=C[C@H](c2csc3ccccc23)C[C@H](OCCCCO)O1	inactive	–
CCCCc1ccc(NC(=S)Nc2ccc(Nc3ccc(OC)cc3)cc2)cc1	inconclusive: 14.1 µM [inhibitor, partial curve]	–
C=CCOc1c(Br)cc(CNn2c(C)n[nH]c2=S)cc1OCC	inconclusive: 35.5 µM [inhibitor, partial curve]	–
CCOc1ccc(Oc2nc(NCC(C)C)nc(N3CCOCC3)n2)nn1	inactive	–
Cc1cc2nc(-c3ccc(SCC(=O)N4CCN(C(=O)c5ccco5)CC4)nc3)[nH]c2cc1C	inconclusive: 50.1 µM [inhibitor, single point]	–
O=C1CN(CC(=O)N2CCCCC2)c2ccccc2O1	inconclusive: 28 µM [inhibitor, partial curve]	–
Cc1c(Cl)cccc1NC(=O)C1CCCN(C(=O)c2cnn(-c3ccccc3)c2-n2cccc2)C1 (stereo not given)	inactive	–
COc1ccc(N2CCCC2)c(NC(=O)c2ccc(Br)o2)c1	inconclusive: 28.2 µM [inhibitor, partial curve]	–
Cc1ccc2[nH]c3c(c2c1)CN(C(=O)CN1CCN(c2ccccc2F)CC1)CC3	inconclusive: 39.5 µM [inhibitor, partial curve]	–
CCC1CCCCN1C(=O)CSc1nc(N)c(NC(=O)c2ccc(OC)c(OC)c2)c(=O)[nH]1 (stereo not given)	inconclusive: 44.7 µM [inhibitor, single point]	–

Compound	Potency	activity change, negative = inhibition
CC1Cc2ccccc2N1CC(=O)c1c(N)n(Cc2ccccc2)c(=O)n(C)c1=O (stereo not given)	inconclusive: 35.5 µM [inhibitor, partial curve]	–
Cc1cc(C)c(S(=O)(=O)Nc2ccc(O)cc2)cc1C	active: 14.1 µM	–
O=C(O)c1ccc(N/N=C/C=C/c2ccccc2)cc1	inconclusive: 44.7 µM [inhibitor, partial curve]	–
CCc1nnc(NC(=O)CSc2nnc(CNc3ccc(F)cc3)n2C2CCCCC2)s1	–	inconclusive: 39% [activator]
Cc1sc(N/N=C/c2cccnc2)nc1-c1ccccc1	inconclusive: 15.7 µM [inhibitor, partial curve]	–
Cc1ccc(C)c2[nH]c(=O)c(CN(Cc3ccco3)C(=O)Nc3ccccc3)cc12	inactive	–
COc1cc(/C=N/NS(=O)(=O)c2ccc(C)c([N+](=O)[O-])c2)cc([N+](=O)[O-])c1O	inconclusive: 22.4 µM [inhibitor, partial curve]	–
COc1cc(/C=N/NC(=O)CCn2nnc3ccccc32)ccc1O	inconclusive: 39.8 µM [inhibitor, single point]	–
COc1ccc(N/C=C2/CCCCC2=O)cc1	inconclusive: 7.94 µM [inhibitor, single point]	–
Cc1cc(C)nc(Nc2cccc(C(F)(F)F)c2)n1	inactive	–
O=C(CNC(=O)c1[nH]cnc1C(=O)NC(c1ccccc1)c1ccccc1)OCc1ccccc1	inconclusive: 31.6 µM [inhibitor, single point]	–
COc1ccc(N(CC(=O)NCc2ccccc2Cl)S(=O)(=O)c2c(C)[nH]c(=O)[nH]c2=O)cc1	inconclusive: 11.2 µM [inhibitor, single point]	–
Cc1cc2nnc(SCC(=O)NCC3CCCO3)n2c2ccccc12 (stereo not given)	–	inconclusive: 32.3% [activator]
CC1CCN(Cc2c(C(=O)N/N=C/c3cccc(Cl)c3)nnn2-c2nonc2N)CC1	inconclusive: 50.1 µM [inhibitor, single point]	–
O=C(Nc1ccc(Nc2ccccc2)cc1)N1CCOCC1	inconclusive: 28 µM [inhibitor, partial curve]	–
Cc1c(NS(=O)(=O)c2ccccc2)cc(Cl)c(O)c1C	active: 14 µM	–
COc1cccc(CC(=O)Nc2ccccc2N2CCCC2)c1	inconclusive: 3.16 µM [inhibitor, partial curve]	–
CC1(C)CN(O)CCN1O	inconclusive: 3.52 µM [inhibitor, full curve]	–
O=C1c2ccccc2C(=O)N1Cc1cc(Cl)c(O)c([N+](=O)[O-])c1	inactive	–
O=C(O)c1ccc(N=NN2CCCC2)cc1	inconclusive: 31.4 µM [activator, single point]	–
COc1ccc(N2CC3=C(C2=O)C(c2ccc(O)c(OC)c2)NC(=O)N3C)cc1 (stereo not given)	inconclusive: 44.7 µM [inhibitor, partial curve]	–
O=C(NCCc1cccs1)c1ccc(Cn2c(SCc3ccccc3)nc3cccnc32)cc1	inactive	–
